The target in this experiment is T1, HscB from Escherichia coli (Escherichia coli, UniProt P0A6L9 1-171).
T1 sequence (looked up): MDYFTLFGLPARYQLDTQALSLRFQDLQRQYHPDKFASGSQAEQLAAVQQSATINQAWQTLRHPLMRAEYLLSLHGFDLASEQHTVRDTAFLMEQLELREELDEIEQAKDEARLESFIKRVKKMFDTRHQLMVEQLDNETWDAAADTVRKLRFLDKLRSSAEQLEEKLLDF
The experiment in a line: ITC. Background: In ITC the heat of successive injections is recorded.

B1: apo-IscU(D39A) from Escherichia coli (natural protein, UniProt P0ACD4 1-128, looked up)
chain: MAYSEKVIDHYENPRNVGSFDNNDENVGSGMVGAPACGAVMKLQIKVNDEGIIEDARFKTYGCGSAIASSSLVTEWVKGKSLDEAQAIKNTDIAEELELPPVKIHCSILAEDAIKAAIADYKSKREAK
B1: the Kd was ~10 µM and the “stoichiometry N” value is 1.

The Kd is the constant that tells how readily two partners part at equilibrium. Higher therefore signals weaker binding. For orientation: stoichiometry N means the number of molecules, sites or subunits per partner or assembly.

The values are drawn from publication PMC2758247 (Biochemistry, 2009).
